“And” between values parts separate entries of the source, which are not always exact repeats. Equal entries are not always repeated. This list was built around the results that the source calls inconclusive (neither active nor inactive); the mix of calls is not that of the screen. A potency beside an inconclusive call is a rough fit, not a confirmed value. A structure can be active in one record and inactive in another. The source made the active and inactive calls. Calls follow the shape of the dose curve; as a rule, active = well fitted curve in the direction sought with a large enough effect; inconclusive = small, poorly fitted or top-dose-only effect, or another doubt; inactive = no such curve, though single readings can be large; an effect the other way counts as inactive or inconclusive.
Tests used:
[1] = Viability qHTS for spleen associated tyrosine kinase inhibitor (SYKi) naive MV4-11 cells (AID 1963823); details: MV4-11 AML viability, CellTiter-Glo luminescence, 72 h; viability (% of control): at 45 µM (top of the series); also: nearly all actives have a fitted effect of over 40% in size
How it was run: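 Cells: MV4-11, SYK inhibitor naive, 500 per well. Treatment: library compounds, 72 hr, 37 C, 5% CO2. Read-out: CellTiter-Glo luminescence after 10 min RT.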

[2] = Viability qHTS for spleen associated tyrosine kinase inhibitor (SYKi) drug resistant MV4-11 cells (AID 1963824); details: SYKi-resistant MV4-11 viability, CellTiter-Glo, 72 h; series mostly up to 45 µM; also: nearly all actives have a fitted effect of over 35% in size
How it was run: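 SYK inhibitor-resistant MV4-11 AML cells, 500 per well, added to predispensed compounds and incubated 72 hr at 37 C, 5% CO2. Viability measured by CellTiter-Glo luminescence after 10 min at room temperature.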

[3] = Cellular viability qHTS for adrenocortical cancer (ACC) cell line SW-13 (AID 1963989); details: SW-13 ACC cells viability, CellTiter-Glo, 48 h; activity (max response): stronger effect = lower value; also: nearly all actives have a fitted effect of over 65% in size;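 as to activity (max response): cells grown in serum-free medium with ITS supplement; % is scaled to controls: 0 for no effect and ±100 for the full control effect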
How it was run: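 Here, serum-free SW-13 cultures were dosed up to 46 uM. Following 48 h, ATP-dependent luminescence (CellTiter-Glo) reported viable cells, and logistic modeling produced IC50 values.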

[4] = Cellular viability qHTS for adrenocortical cancer (ACC) cell line NCI-H295R (AID 1963990); details: CellTiter-Glo ATP luminescence, 48 h; activity change, negative = viability loss: at 46.1 µM (top of the series); also: nearly all actives have a fitted effect of over 60% in size
How it was run: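 Viability of NCI-H295R after 48 h of treatment (final up to 46 uM) measured through cellular ATP luminescence.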
Potency is read from the fitted curve at half-maximal effect; tags tell the direction and shape of the fitted curve.

Structure (SMILES) | Potency [1] | Potency [2] | Potency [3] | Potency [4] | activity (max response) [3]
NC(=Nc1ccccc1)Nc1ccccc1 | active: 38.6 µM and inactive | active: 34.4 µM and inconclusive: 9.44 µM [cytotoxic, partial curve, poor fit] | inconclusive: 56.2 µM [cytotoxic, single point] | inconclusive: 35.5 µM [cytotoxic, single point] | 
CNCC[C@@H](Oc1ccccc1C)c1ccccc1 | inconclusive: 26.6 µM [cytotoxic, single point] | inconclusive: 26.6 µM [cytotoxic, partial curve, poor fit] | inconclusive: 18.4 µM [cytotoxic, single point] | inconclusive: 25.9 µM [cytotoxic, single point] | 
CC(Cc1cccc(C(F)(F)F)c1)NCCOC(=O)c1ccccc1 (configuration not stated) | inconclusive: 0.0668 µM [cytotoxic, full curve, poor fit] | inactive | inconclusive: 16.4 µM [cytotoxic, single point] | inconclusive: 29.1 µM [cytotoxic, single point] | 
C[N+]1(CC2COC(c3ccccc3)(c3ccccc3)O2)CCCCC1 (configuration not stated) | inconclusive: 7.96 µM [cytotoxic, single point] | active: 10 µM | inconclusive: 15.9 µM [cytotoxic, single point] | inconclusive: 1.78 µM [rising, single point] | 
COc1ccccc1Oc1c(NS(=O)(=O)c2ccc(C(C)(C)C)cc2)nc(-c2ncccn2)nc1OCCO | inconclusive: 9.44 µM [cytotoxic, partial curve] | inconclusive: 3.76 µM [cytotoxic, partial curve, poor fit] |  | inconclusive: 1.46 µM [cytotoxic, partial curve, poor fit] | inactive: -3.16%
CN1C[C@H](C(=O)N[C@]2(C)O[C@@]3(O)[C@@H]4CCCN4C(=O)[C@H](Cc4ccccc4)N3C2=O)C[C@@H]2c3cccc4[nH]cc(c34)C[C@H]21 | inconclusive: 9.44 µM [cytotoxic, partial curve, poor fit] | inconclusive: 8.41 µM [cytotoxic, partial curve] | inconclusive: 20.6 µM [cytotoxic, single point] | inconclusive: 32.6 µM [cytotoxic, single point] | 
c1ccc(-c2ccc(C(c3ccccc3)n3ccnc3)cc2)cc1 (configuration not stated) | inconclusive: 16.8 µM [cytotoxic, partial curve] | inconclusive: 15 µM [cytotoxic, partial curve] | active: 18.4 µM | inconclusive: 23.1 µM [cytotoxic, single point] | 
CCC(C(=O)O)c1ccc(N2Cc3ccccc3C2=O)cc1 (configuration not stated) | inactive | inconclusive: 0.0106 µM [rising, full curve, poor fit] |  |  | inactive: 5.42%
Cc1ccc(O)c([C@H](CCN(C(C)C)C(C)C)c2ccccc2)c1 | inconclusive: 9.44 µM [cytotoxic, partial curve] | inconclusive: 11.9 µM [cytotoxic, partial curve] | inconclusive: 20.6 µM [cytotoxic, single point] | inconclusive: 20.6 µM [cytotoxic, single point] | 
COC1=CC(=O)C[C@@H](C)[C@]12Oc1c(Cl)c(OC)cc(OC)c1C2=O | inconclusive: 21.1 µM [cytotoxic, partial curve, poor fit] | inconclusive: 23.7 µM [cytotoxic, single point] | inconclusive: 20.6 µM [cytotoxic, single point] | inconclusive: 29.1 µM [cytotoxic, single point] | 
CCCCOC(=O)NS(=O)(=O)c1sc(CC(C)C)cc1-c1ccc(Cn2ccnc2)cc1 | active: 14.8 µM | active: 14.8 µM | active: 28.2 µM | active: 25.1 µM | 
COCCCC/C(=N\OCCN)c1ccc(C(F)(F)F)cc1 | inconclusive: 29.9 µM [cytotoxic, single point] | inconclusive: 33.5 µM [cytotoxic, single point] | inconclusive: 20.6 µM [cytotoxic, partial curve, poor fit] | inconclusive: 29.1 µM [cytotoxic, single point] | 

— PubChem BioAssay (NCATS)
